Experimental data from PubChem BioAssay AID651820 (National Center for Advancing Translational Sciences (NCATS), 2012).
Hit rate of the full screen: of about 340,000 compounds, about 12,000 (3.5%) were called active. Inconclusive means that the source gave no clear call. Such entries were picked first, then a sample of the others. Calls come from the whole dose curve; as a rule, active = well fitted inhibition curve with a large enough effect; inconclusive = small, poorly fitted or top-dose-only effect, or another doubt; inactive = no such curve, though single readings can be large or run the other way. No potency is given beside an inconclusive call; the fits are too rough.

Experiment: qHTS Assay for Inhibitors of Hepatitis C Virus (HCV)
Details: Huh7.5.1 HCVcc-Cre (HCVcc is cell-culture hepatitis C virus) infection, luciferase reporter, 44 h; activity change, negative = inhibition: at 41.8 µM (top of the series)
Summary of the method: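 After 44 h co-culture of compound, cells and HCVcc-Cre (~0.5 moi), substrate is added for 15 min at room temperature and luciferase measured over 15 sec. Cells were seeded at 1,000/well and pre-cultured 4 h.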
% is set by controls: 0 for no effect and ±100 for the full control effect; potency is the fitted concentration of half-maximal effect; tags give direction and shape of the fitted curve.

SMILES	Potency	activity change, negative = inhibition
Cc1ccc(Nc2nc(-c3cccnc3)cs2)cc1C	inconclusive [inhibitor, single point]	
Cc1ccccc1N1CC(O)(c2cccs2)[N+]2=C1CCCC2 (stereo unspecified)	inconclusive [inhibitor, single point]	
Cc1cccc(-n2cc(CN3CCN(c4ccccn4)CC3)c(-c3cccc(F)c3)n2)c1	inactive	
Cc1cccc(NC(=S)NC2CCCC2)n1	inconclusive [inhibitor, single point]	
CC(C)N1CCC(N2CCN(CC#Cc3ccccc3)CC2CCO)CC1 (stereo unspecified)	inactive	
CC(C)C(Cl)=NOC(=O)Nc1ccc(S(N)(=O)=O)cc1	inconclusive [inhibitor, single point]	
Cc1cc(C(=O)NNC(=O)c2sccc2C)c(C)o1	inactive	
CCCn1nc(NC(=O)C(C)C)c2cc3cc(OC)ccc3nc21	inconclusive [inhibitor, single point]	
O=C(COC(=O)c1cccc(Br)c1)NCC1CCCO1 (stereo unspecified)	inconclusive [inhibitor, partial curve]	
COc1cc(/C=N/NC(=S)NC(C)C)ccc1OCC(=O)Nc1c(C)cc(C)cc1C	inactive	
Cc1sc(NC(=O)COc2ccccc2)c(C#N)c1-c1ccccc1	inconclusive [inhibitor, full curve]	
CCOC(=O)c1cccc(NC(=O)CSc2nnc(COc3ccccc3)n2CC)c1	inconclusive [inhibitor, full curve, poor fit]	
CC(CCc1ccccc1)NC(=S)NC1CCCCC1 (stereo unspecified)	inconclusive [inhibitor, single point]	
CCOc1ccc(NC(=O)c2ccc(NC(=O)c3cn4c5c(c(N6CCN(C)CC6)c(F)cc5c3=O)OCC4C)cc2)cc1 (stereo unspecified)	inactive	
COc1ccccc1N=c1oc2cc(O)ccc2cc1C(N)=O	inactive	
Cc1cc(-c2ccccc2)nc2cc(C(N)=O)nn12	inconclusive [inhibitor, single point]	
Cc1ccccc1C(=O)O/N=C(\N)Cc1cccs1	inconclusive [inhibitor, single point]	
O=C(CSc1nc2ccc([N+](=O)[O-])cc2s1)NCC1CCCO1 (stereo unspecified)	inconclusive [inhibitor, single point]	
NS(=O)(=O)c1ccc2nc(-c3ccccc3)c(-c3ccccc3)nc2c1	inconclusive [inhibitor, full curve]	
CCCCSc1nc2c(cc1C#N)CCC2	active: 22.4 µM	
COc1ccc(CNc2ccc(C)cc2)cc1Br	inconclusive [inhibitor, single point]	
O=C(CCCN1C(=O)c2cccc3cccc(c23)C1=O)N1CCN(Cc2ccc3c(c2)OCO3)CC1	inconclusive [inhibitor, partial curve]	
COc1ccc(NC(=O)c2cc(C)on2)cc1	inconclusive [inhibitor, single point]	

SMILES	Potency	activity change, negative = inhibition
Cc1ccc(CSC2=Nc3ccccc3C3=NC(=O)CN23)cc1	active: 7.94 µM	
CN(C)c1ccc(C(C#N)c2ccccc2)nn1 (stereo unspecified)	inconclusive [inhibitor, single point]	
Cc1ccc(C(C)C)c(OCCCn2ccnc2C)c1	inconclusive [inhibitor, single point]	
N#Cc1ccc(NC(=O)CCc2ccc(S(=O)(=O)N3CCOCC3)cc2)cc1	inconclusive [inhibitor, partial curve, poor fit]	
COc1ccc(SC[C@H](C)CN2CC[C@H](C(C)(C)C)CCC2=O)cc1	inconclusive [inhibitor, partial curve]	
Cc1cccc(C)c1NC(=O)/C(C#N)=C/c1ccsc1	inactive	
O=C(Nc1ccccc1)C1=C[C@@H](C2CC2)C[C@@H](OCc2ccc(CO)cc2)O1	active: 0.562 µM	
COc1ccc(/C=N/NC(=O)c2nn(-c3ccc(Cl)cc3)c(=O)c3c(N)scc23)cc1	inconclusive [inhibitor, single point]	
CCn1cc(C2C3=C(CC(C)(C)CC3=O)N(c3ccccc3)C3=C2C(=O)CC(C)(C)C3)c(C)n1	inactive	
COC(=O)C1=C(c2cccc(OCc3ccccc3)c2)C[C@@H]2CC[C@H]1N2C(=O)NCc1ccccc1	inconclusive [inhibitor, partial curve]	
CC(Sc1nnc(COc2ccc(Cl)cc2)n1Cc1ccco1)C(=O)N1CCNC1=O (stereo unspecified)	inactive	
O=C(N1CCN(Cc2ccc3c(c2)OCO3)CC1)C(Cl)(Cl)Cl	inconclusive [inhibitor, single point]	
O=C1c2oc3ccccc3c(=O)c2C(c2cccc(Br)c2)N1Cc1ccco1 (stereo unspecified)	inactive	
Nc1ccc2c(c1)CCC2=O	inconclusive [inhibitor, single point]	
Clc1ncccc1-c1nc2ccccc2s1	inconclusive [inhibitor, single point]	
COc1ccccc1Nc1nc(Cl)c(C=O)s1	inactive	
CSc1nc(N(C)NC(=O)c2ccc(Cl)cc2)c2ccccc2n1	inconclusive [inhibitor, full curve]	
O=C(NC(=S)Nc1nc(-c2ccc(Br)cc2)cs1)c1cccnc1	inconclusive [inhibitor, full curve, poor fit]	
CN(Cc1ccc(Cl)c(Cl)c1)C(=O)C1CSC2(C)CCC(=O)N12 (stereo unspecified)	inactive	
COC(=O)N/N=C/c1cc(C)n(-c2ccc(Br)cc2)c1C	inconclusive [inhibitor, single point]	
Cn1c(=O)c2c(SCc3c(F)cccc3Cl)nc(CC(C)(C)C)nc2n(C)c1=O	inactive	
O=C(CN1CCN(S(=O)(=O)c2ccc3c(c2)OCCO3)CC1)Nc1cccc(F)c1		inconclusive: -41.7% [inhibitor]
COc1ccc(C(CNC(=O)CCNS(=O)(=O)c2ccc(Br)cc2)N2CCCC2)cc1 (stereo unspecified)	inconclusive [inhibitor, single point]	
